Data on 48 compounds can be found in PubChem BioAssay AID1454 (National Center for Advancing Translational Sciences (NCATS), 2008).

The structures appear in SMILES notation. Values joined by “and” are separate entries in the source; they are usually repeats but may differ in a detail not shown here. Equal values may be shown once. Out of some 130,000 compounds screened, about 550 (0.42%) were called active. About 4% were inconclusive and are not listed. Calls follow the shape of the dose curve; as a rule, active = well fitted inhibition curve with a large enough effect; inconclusive = small, poorly fitted or top-dose-only effect, or effect the other way; inactive = flat fitted curve, though single readings scatter. The entries are a selection whose mix differs from that of the whole data set. A structure can be active in one record and inactive in another.
Potency is read from the fitted curve at half-maximal effect.

The assay is described as follows: qHTS Assay for Inhibitors of the ERK Signaling Pathway using a Homogeneous Screening Assay; Stimulation with EGF. Also: nearly all actives have a fitted effect of over 55% in size.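 As to activity change, negative = inhibition: plate controls were stimulated vehicle wells for no effect and unstimulated vehicle basal for full effect.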 To be noted: HEK293-V1b, EGF-stimulated phospho-ERK AlphaScreen; activity change, negative = inhibition: at the top concentration. From the text:
NIH Chemical Genomics Center [NCGC]
NIH Molecular Libraries Screening Centers Network [MLSCN]
Assay Submitter (PI): Dr. Wei Zheng, NCGC/NIH
The Ras/extracellular-signal-regulated kinase (ERK) mitogen activated protein (MAP) kinase signaling pathway (ERK1/2 cascade) plays a key role in transmitting signals from the cell surface to the nucleus (Nishida and Gotoh 1993; Chang and Karin, 2001). The cascade is initiated by the small G-protein Ras, which recruits Raf from the cytosol, where activation occurs. Alternatively, this pathway can be activated by elevating intracellular cAMP, or by activation of a receptor tyrosine kinase as epidermal growth factor receptor.
Activation of the ERK pathway is essential in increased cell division and cell survival. Sustained and constitutive activation of the ERK pathway, however, has been linked to uncontrolled cell proliferation, increased cell survival, and tumor progression. Thus, the ERK has been as an attractive target for cancer chemotherapy in the past few years (Sebolt-Leopold and Herrera, 2004). Given its physiological and pathological importance, assessment of ERK phosphorylation has been broadly performed in both basic research and drug discovery. Most assays for the measurement of ERK phosphorylation use the antibody-based detection methods, such as western blot and ELISA. These assays require multiple reagent additions with cell wash steps and are not suitable for high throughout screening.
The current cell-based ERK phosphorylation assay was performed using AlphaScreen platform. AlphaScreen is a two bead-based proximity-dependent chemical energy transfer luminescent assay platform. The assay reagents (ERK SureFire(TM) kit) were supplied from TGR BioSciences (Australia). In the presence of specific antibodies, phosphorylated ERK will bring "donor" and "acceptor" beads to a proximity range (<200 nm), and subsequently lead a chemical luminescent reaction upon exciting donor beads with 680 nm laser. To exclude the assay-related false positives, we used a biotinylated rabbit IgG to perform counter-screen. The biotinylated antibody mimics the phosphorylated ERK1/2 for bringing streptavidin coated beads and protein-A coated beads to a proximity range for the AlphaScreen detection.
NCGC Assay Protocol Summary:
HEK293 cells stably expressing type-1 vasopressin receptor (V1b) were maintained in DMEM medium (Invitrogen, Carlsbad, CA) at 37C under a humidified atmosphere containing 5% CO2 and 95% air. The medium contained 10% FBS, 2 mM L-glutamine, non-essential amino acid, pyruvate and 50 U/ml penicillin and 50 ug/ml streptomycin (Invitrogen). The aliquots of frozen cells were stored at -135C and used for the compound screening. All compounds were screened as titrations from 0.6 nM to 46 uM final concentration. Epidermal growth factor (EGF) was used to stimulate the ERK phosphorylation pathway. The ERK phosphorylation in cells was determined using an AlphaScreen assay kit provided by […]. Data were normalized to the controls for basal activity (DMSO only) and 100% activation (25 nM EGF). AC50 values were determined from concentration-response data modeled with the standard Hill equation.
(1) Seed 4 ul/well of resuspended frozen HEK293 cells containing 2000 cells in white 1536-well plates for overnight with 1% FBS at 37C under a humidified atmosphere containing 5% CO2 and 95% air.
(2) Add 23 nL compounds in DMSO solution. The final titration was 0.6 nM to 46 uM.
(3) Incubate at 37C for 30 min.
(4) Dispense 0.5uL EGF (25 nM in final)
(5) Incubate at 37C for 5 min.
(6) Dispense 0.5uL of 1:2 diluted 5x lysis buffer.
(7) Incubate at 37C for 10 min.
(8) Dispense 1.5uL of mixture of activation buffer and reaction buffer with AlphaScreen beads (streptavidin donor beads and protein-A acceptor beads, 10 ng/well for each).
(9) Incubate at room temperature for 5 hr.
(10) Detect the assay plate in an EnVision plate reader (PerkinElmer) using the AlphaScreen detection mode.
[…]
A general note: In qHTS, concentration-response curves come from the screen itself.
Consider `CC(C)=CCc1c(O)cc2occ(-c3ccc4c(c3)OCO4)c(=O)c2c1O`, for which the Potency is active: 22.4 µM.

Consider `CCOC(=O)C1=C(C)NC(C)=C(C(=O)OC)C1c1cccc([N+](=O)[O-])c1` (stereo not drawn), for which the Potency result is “inactive”.

In the case of `CCN1CCCC1CNC(=O)c1cc(S(=O)(=O)CC)c(N)cc1OC` (stereo not drawn), the Potency result is “inactive”.

Take `COc1ccccc1OCCNCC(O)COc1cccc2[nH]c3ccccc3c12` (stereo not drawn): the Potency entry is “inactive”.

For `COc1ccc2cc1Oc1ccc(cc1)C[C@H]1c3c(cc4c(c3Oc3cc5c(cc3OC)CCN(C)[C@@H]5C2)OCO4)CCN1C`, the “activity change, negative = inhibition” value was inactive: -8.74% [at 57.5 µM].

As for `CN(C)CCCC1(c2ccc(F)cc2)OCc2cc(C#N)ccc21` (stereo not drawn), the Potency result is “inactive”.

Regarding `CCCCC1=NC2(CCCC2)C(=O)N1Cc1ccc(-c2ccccc2-c2nn[nH]n2)cc1`, the “activity change, negative = inhibition” value is inactive: 4.31%.

As for `Cc1[nH]n(-c2ccccc2)c(=O)c1N=Nc1ccc2c(c1)OCCO2`, the Potency was active: 12.6 µM.

`CN(C)CCOC(c1ccccc1)c1ccccc1` (tested in a mixture with another compound): the Potency entry is “inactive”.

Consider `Clc1ccccc1C(c1ccccc1)(c1ccccc1)n1ccnc1`, for which the Potency entry is “inactive and active: 22.4 µM”.

In the case of `Cc1ccc(/C=C2/SC(=S)N(CCCC(=O)Nc3ccc(O)cc3)C2=O)cc1`, the “activity change, negative = inhibition” value is inactive: -6.25% [at 57.5 µM].

For `O=C(NN1C(=O)/C(=C/c2ccc(O)c([N+](=O)[O-])c2)SC1=S)c1ccccc1Cl`, the “activity change, negative = inhibition” value is inactive: -5.66%.

On to `Oc1c(Cl)cc(Cl)cc1Sc1cc(Cl)cc(Cl)c1O`, for which the “activity change, negative = inhibition” value is inactive: 6.7%.

Regarding `COc1ccc(/C=C\C(=O)Nc2ccccc2C(=O)O)cc1OC`, the “activity change, negative = inhibition” value was inactive: -18.6%.

Turning to `CC[C@H](C)C(=O)O[C@H]1CCC=C2C=C[C@H](C)[C@H](CC[C@@H]3C[C@H](O)CC(=O)O3)C21` (stereo partly drawn), the “activity change, negative = inhibition” value was inactive: 22.7%.

With `CCCN1C(=O)/C(=C2/C=Cc3ccccc3N2CC)SC1=S`, the Potency was active: 5.62 µM.

Take `Cc1cccc(N=C2NC(=O)/C(=C\c3cccs3)S2)c1`: the “activity change, negative = inhibition” value was inactive: 3.29%.

`Clc1ccc(-c2ncc3ccccn23)cc1`: the Potency is active: 31.6 µM.

Turning to `CC(C)N(CCC(=O)c1ccc2ccccc2c1)Cc1ccccc1`, the “activity change, negative = inhibition” value is inactive: -3.42%.

As for `COc1ccccc1NC(=O)/C(=C/c1cccs1)NC(=O)c1ccco1`, the “activity change, negative = inhibition” value is inactive: 4.14% [at 57.5 µM].

Take `O=S(=O)(c1cccc2c(Cl)cccc12)N1CCCNCC1`: the “activity change, negative = inhibition” value is inactive: -8.2%.

Take `Nc1nnc(-c2cccc(Cl)c2Cl)c(N)n1`: the Potency result is “inactive”.

For the compound `COc1ccc(OC)c(-c2c3cc(O)c(=O)cc-3oc3cc(O)c(O)cc23)c1`, the Potency was active: 25.1 µM.

`COc1cccc(-c2ccc3ncnc(NCc4cccs4)c3c2)c1`: the Potency is active: 28.2 µM.

For the compound `C=CC[C@H]1Cc2c(cccc2[N+](=O)[O-])[C@H](CC=C)N1`, the “activity change, negative = inhibition” value was inactive: 1.18%.

For `CCCCOC(=O)c1ccc(O)cc1`, the “activity change, negative = inhibition” value was inactive: 0.364% [at 25.7 µM].

Regarding `OC(CNCCc1ccc(C(F)(F)F)cc1)COc1ccc2ccccc2c1` (stereo not drawn), the Potency is active: 35.5 µM.

In the case of `CC(C)COc1ccc(C(=O)N/C(=C\c2cccc([N+](=O)[O-])c2)C(=O)O)cc1`, the “activity change, negative = inhibition” value was inactive: 6.62% [at 57.5 µM].

With `O=C(O)c1cc(O)c2c(c1)C(=O)c1cc(O)cc(O)c1C2=O`, the “activity change, negative = inhibition” value was inactive: 21.3%.

With `CCOC(=O)C1=C(C)NC(C)=C(C(=O)OC)[C@@H]1c1cccc([N+](=O)[O-])c1`, the “activity change, negative = inhibition” value is inactive: 8.75% [at 25.7 µM].

For `CN1C(C(=O)Nc2ccccn2)=C(O)c2ccccc2S1(=O)=O`, the Potency result was “inactive”.

Regarding `CC(/C=N\N1CCN(Cc2ccc(C)cc2)CC1)=C\c1ccccc1`, the “activity change, negative = inhibition” value is inactive: 5.84%.

Regarding `c1coc(CN(Cc2ccco2)c2ncnc3c2oc2ccccc23)c1`, the Potency was active: 17.8 µM.

For `COc1ccc(C2c3ccc4ccccc4c3Oc3ncn(CCCO)c(=N)c32)cc1` (stereo not drawn), the Potency was active: 39.8 µM.

For `O=C1Nc2ccc(I)cc2/C1=C/c1cc(Br)c(O)c(Br)c1`, the “activity change, negative = inhibition” value is inactive: -4.3%.

Consider `CN(C(=O)COc1ccccc1C(=O)NCCOc1ccccc1)c1ccccc1`, for which the Potency was active: 31.6 µM.

`Oc1cc2c(cc1O)C(c1ccccc1)CNCC2` (stereo not drawn): the Potency result was “inactive”.

In the case of `COc1cc2ncnc(Nc3cccc(Br)c3)c2cc1OC`, the Potency was active: 0.1 µM.

Regarding `C[C@H](C(=O)O)c1cccc(C(=O)c2ccccc2)c1`, the “activity change, negative = inhibition” value was inactive: -12.5%.

Turning to `O=C(Nc1nc(-c2ccccc2)cs1)c1ccc(N2CCOCC2)c([N+](=O)[O-])c1`, the Potency is active: 3.98 µM.

As for `C[C@H](NC(=O)c1[nH]cnc1C(=O)Nc1ccc(CNC(=O)OC(C)(C)C)cc1)C(=O)OCc1ccccc1`, the Potency is active: 31.6 µM.

Consider `COCCCNC(=O)c1ccc2c3c(onc13)-c1ccccc1C2=O`, for which the Potency was active: 31.6 µM.

Turning to `Cc1ccc(C(=O)c2cc3ccccc3o2)cc1[N+](=O)[O-]`, the Potency is active: 22.4 µM.

With `CC12C(=O)OC(=O)C1(C)C1CCC2O1` (stereo not drawn), the “activity change, negative = inhibition” value is inactive: -11.4%.

As to `O=C(NCc1nc2ccccc2[nH]1)C1=C[C@@H](C2CCCCC2)C[C@@H](OCc2ccc(CO)cc2)O1`, the “activity change, negative = inhibition” value is inactive: -2.73% [at 57.5 µM].

Regarding `N[C@H]1CONC1=O`, the “activity change, negative = inhibition” value was inactive: 19.5%.

As to `CC1=NN(c2ccccc2)C(=O)/C1=C/C=C/c1ccccc1`, the Potency is active: 15.8 µM.

Take `O=C1c2ccccc2C(=O)c2c(O)c(O)cc(O)c21`: the “activity change, negative = inhibition” value was inactive: -4.6%.
